Results published in the supplement of paper PMC3334620.
Over roughly 33,000 sequences, “E-score (-0.5 to 0.5)” has its median near -0.054; the highest 2% begin near 0.35. The list shows a part of the results.

Target: T1, Stb5 (UniProt P38699)
T1 sequence: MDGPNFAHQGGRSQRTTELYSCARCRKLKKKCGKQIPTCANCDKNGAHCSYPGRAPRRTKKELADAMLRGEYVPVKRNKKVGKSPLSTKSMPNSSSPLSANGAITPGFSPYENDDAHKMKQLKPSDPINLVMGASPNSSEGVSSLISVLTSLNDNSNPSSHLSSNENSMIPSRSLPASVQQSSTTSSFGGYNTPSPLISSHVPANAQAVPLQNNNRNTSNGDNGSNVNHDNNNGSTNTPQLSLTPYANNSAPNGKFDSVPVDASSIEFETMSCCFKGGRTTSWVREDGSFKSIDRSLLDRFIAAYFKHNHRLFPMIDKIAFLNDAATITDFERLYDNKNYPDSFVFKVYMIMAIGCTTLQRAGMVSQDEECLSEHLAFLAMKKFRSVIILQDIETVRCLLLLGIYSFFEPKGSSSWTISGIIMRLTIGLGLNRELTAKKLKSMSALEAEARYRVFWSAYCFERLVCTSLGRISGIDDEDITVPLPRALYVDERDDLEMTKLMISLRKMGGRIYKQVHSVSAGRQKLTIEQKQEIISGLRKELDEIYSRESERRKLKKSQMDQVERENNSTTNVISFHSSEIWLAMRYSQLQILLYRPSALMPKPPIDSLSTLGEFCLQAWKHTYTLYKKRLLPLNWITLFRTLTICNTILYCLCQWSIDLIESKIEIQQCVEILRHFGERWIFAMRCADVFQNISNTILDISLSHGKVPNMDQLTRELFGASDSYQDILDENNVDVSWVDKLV
Experiment: PBM E-score (8-mer binding enrichment) (E-score (-0.5 to 0.5)); higher = stronger / more preferred TF binding; most listed sequences are background and not binding sites
Details: protein concentration: 200 nM; construct: GST-full length
Summary of the method: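 GST-tagged yeast TFs (full-length or DNA-binding domain) were made by PURExpress in vitro transcription/translation and applied at about 100-200 nM to universal all-10-mer Agilent arrays. The arrays were made double-stranded by primer extension, on fresh or once-stripped slides. Bound protein was detected with fluorescent anti-GST, and scans were normalised with masliner. Each ungapped eight-base word, pooled with its reverse complement, received an E-score (modified Wilcoxon-Mann-Whitney statistic) from the Universal PBM Analysis Suite.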

| Sequence | PBM E-score |
| --- | --- |
| CTCCTCTA | -0.102 |
| AACGTTTC | -0.169 |
| GGACGACA | -0.0763 |
| GGTAGTGA | -0.0261 |
| CGCAGAAA | -0.114 |
| CAGTAAAG | -0.0298 |
| CCGCGGAC | 0.362 |
| ATTGGCCC | 0.0136 |
| ATACTACA | -0.039 |
| AACTTAAA | -0.119 |
| CACCAGCG | -0.06 |
| AATGAGAG | -0.228 |
| AACACTGT | -0.22 |
| CAGTTAGC | -0.144 |
| AAACTGAG | 0.014 |
| AACGATCA | -0.245 |
| GTGGCCGA | 0.144 |
| GTGGATTA | 0.0199 |
| AGCAGGAC | 0.0795 |
| CACTCAGA | -0.204 |
| GATTCTCC | 0.112 |
| ATGACCGG | 0.308 |
| TATGTGGA | 0.0363 |
| AGTATTTC | 0.00234 |
| CCCCTGAC | -0.0846 |

| Sequence | PBM E-score |
| --- | --- |
| CCCTTCAA | -0.0698 |
| AAACTCGT | -0.156 |
| AAATCGGT | 0.273 |
| TAGGAGAA | -0.261 |
| ACTCGAGC | -0.134 |
| AAGACAGT | -0.0774 |
| AGTAGAAG | -0.231 |
| ACAGGGGC | -0.0394 |
| CCCCGAAC | 0.285 |
| CAGTGGTA | -0.159 |
| AAGGGGAA | -0.188 |
| GCACCCAC | -0.0635 |
| ATAAGCGG | 0.249 |
| AATCTGGG | -0.147 |
| AACAGACT | -0.168 |
| AGCTAGGA | -0.226 |
| ACTAGGAT | 0.019 |
| CCCGTACC | 0.25 |
| CTTCCCTA | -0.161 |
| ACTCCAAA | -0.129 |
| ACCATCCC | 0.00047 |
| AGTTGCCA | -0.15 |
| CCTGTCGA | -0.237 |
| CTGGTAAC | 0.0464 |
| AAAATGAG | -0.0189 |

| Sequence | PBM E-score |
| --- | --- |
| AATGACGG | 0.278 |
| CACAGGGG | -0.176 |
| CACTGTGC | -0.131 |
| GGGGAAGA | -0.15 |
| ATCGCTAG | -0.112 |
| TGCGAACA | -0.0834 |
| CTCCTCGC | -0.277 |
| ATATGCGG | 0.192 |
| AGCCGCTC | 0.216 |
| AGCGCCAT | 0.0179 |
| ACGGAGTG | 0.343 |
| CAAGTACC | 0.194 |
| AGGTCGGC | 0.293 |
| AGATCCCT | -0.128 |
| AACTCTAG | -0.33 |
| AGCCGCTG | 0.14 |
| CACCTTCA | -0.0641 |
| ACCCGTGA | -0.00082 |
| CTGCTAAC | -0.215 |
| ACCACACC | -0.0197 |
| GGGACCCC | 0.0378 |
| AAGGAGGT | -0.0343 |
| CGGACGCA | 0.349 |
| ATATTACG | -0.0127 |
| CCACCCCA | -0.29 |

| Sequence | PBM E-score |
| --- | --- |
| CATAAGTA | -0.0678 |
| CAAACTGA | -0.0692 |
| AATGGTAA | 0.003 |
| GAAATAAA | 0.144 |
| CGCCTGAG | 0.0853 |
| CGACCGCG | 0.236 |
| ACACACCT | -0.0405 |
| GCACGGCC | 0.196 |
| ATGGGACA | -0.128 |
| CATTAGAA | -0.132 |
| ACTTACTC | -0.0763 |
| ACTATGAT | -0.24 |
| ACATTAGC | -0.083 |
| CGCCTCGC | -0.0852 |
| CGCCCGTA | 0.167 |
| ATTTATAG | -0.1 |
| AATGATCG | -0.0487 |
| AGCTTGTC | 0.0933 |
| ACCACGAG | -0.212 |
| GAGACCAA | -0.0876 |
| CTACAGCA | -0.0759 |
| CAATGACA | -0.196 |
| GCCTTTTA | 0.0423 |
| ACTAAAAA | 0.158 |
| GATCTTCA | 0.0754 |

| Sequence | PBM E-score |
| --- | --- |
| AATTAAGA | -0.00593 |
| CTAGACAG | -0.0509 |
| CGTTCTAG | -0.0907 |
| ACTCCCAA | -0.18 |
| CTCGAAAG | -0.0798 |
| ACTAGTAC | -0.00152 |
| CGATCACA | -0.028 |
| GAGACATA | -0.0521 |
| GCATTCAA | -0.174 |
| GCTGTTGA | 0.0206 |
| CCCTAATA | -0.32 |
| GTGTGCAA | -0.29 |
| ACGATGAG | 0.0342 |
| AATATCGT | -0.0759 |
| GTAGACCA | -0.297 |
| CGTTTCAA | -0.0569 |
| ATTGGATA | -0.192 |
| TGCTAACA | -0.129 |
| ATCTTATG | -0.0577 |
| ACCTGGCA | -0.222 |
| AAATTTCA | -0.344 |
| ACTGGGTA | -0.0785 |
| AGGGCAGG | -0.205 |
| CGGGAGGA | 0.062 |
| GATGGCGA | 0.0422 |

| Sequence | PBM E-score |
| --- | --- |
| AGAATACA | -0.117 |
| CAGGACAG | -0.143 |
| ATCAAATC | -0.0341 |
| GAGGCCAA | -0.254 |
| AATTGAGA | -0.0963 |
| CCGATTAC | 0.224 |
| TACCACTA | -0.3 |
| AAGAAACA | -0.0428 |
| ACCAGTAT | -0.123 |
| GGGCACCC | -0.0767 |
| GTAAAGAC | -0.0147 |
| CCCTCAAA | -0.102 |
| GTGAGAAC | -0.0202 |
| CACTGAGC | -0.167 |
| AGCAACCC | -0.0382 |
| AGGGATCA | -0.136 |
| ATTAATTC | 0.137 |
| AACGGGGT | 0.373 |
| AGAAAACA | -0.128 |
| CGGAAACC | -0.00066 |
| ACAAATGC | 0.0256 |
| AAAGGACA | -0.0867 |
| GTCATGGA | -0.247 |
| TAGCCGCA | 0.187 |
| CACCTATA | -0.141 |

| Sequence | PBM E-score |
| --- | --- |
| GACGGTAA | 0.294 |
| AGACGTCG | -0.049 |
| ACAAAGGA | -0.158 |
| CTCCAATA | 0.0678 |
| CAATTAGG | 0.0844 |
| ATCGGCCG | 0.249 |
| GAAGCGAA | -0.235 |
| ACATTCGT | -0.218 |
| AGTATCGG | 0.291 |
| TCACACGA | -0.0813 |
| ATGATTAA | -0.0447 |
| ACAGACTG | -0.235 |
| GCCCTGAC | -0.248 |
| TACACTGA | -0.246 |
| CCAAGTAC | 0.0251 |
| AACGAGAT | -0.108 |
| AGGCCCTC | -0.16 |
| GATTCTCA | -0.158 |
| AGAACGTC | -0.263 |
| AGGGACGC | -0.331 |
| ACCTGCGC | 0.121 |
| AGGCATCG | -0.108 |
